Results from paper PMC4336329 (PLoS ONE, 2015).
About 14,000 (4.5%) of roughly 310,000 compounds showed an effect of 50% or more. Effects have a minus sign here. The list shows a part of the results.

Each molecule was assayed against human ether-à-go-go-related gene (hERG) potassium channel (human, UniProt Q12809) (assay: primary screen, population patch clamp on CHO cells stably expressing hERG).
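Also: peak tail current of the secondary pulse compared with the same well before compound.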

Sequence of human ether-à-go-go-related gene (hERG) potassium channel (Q12809 whole entry, looked up): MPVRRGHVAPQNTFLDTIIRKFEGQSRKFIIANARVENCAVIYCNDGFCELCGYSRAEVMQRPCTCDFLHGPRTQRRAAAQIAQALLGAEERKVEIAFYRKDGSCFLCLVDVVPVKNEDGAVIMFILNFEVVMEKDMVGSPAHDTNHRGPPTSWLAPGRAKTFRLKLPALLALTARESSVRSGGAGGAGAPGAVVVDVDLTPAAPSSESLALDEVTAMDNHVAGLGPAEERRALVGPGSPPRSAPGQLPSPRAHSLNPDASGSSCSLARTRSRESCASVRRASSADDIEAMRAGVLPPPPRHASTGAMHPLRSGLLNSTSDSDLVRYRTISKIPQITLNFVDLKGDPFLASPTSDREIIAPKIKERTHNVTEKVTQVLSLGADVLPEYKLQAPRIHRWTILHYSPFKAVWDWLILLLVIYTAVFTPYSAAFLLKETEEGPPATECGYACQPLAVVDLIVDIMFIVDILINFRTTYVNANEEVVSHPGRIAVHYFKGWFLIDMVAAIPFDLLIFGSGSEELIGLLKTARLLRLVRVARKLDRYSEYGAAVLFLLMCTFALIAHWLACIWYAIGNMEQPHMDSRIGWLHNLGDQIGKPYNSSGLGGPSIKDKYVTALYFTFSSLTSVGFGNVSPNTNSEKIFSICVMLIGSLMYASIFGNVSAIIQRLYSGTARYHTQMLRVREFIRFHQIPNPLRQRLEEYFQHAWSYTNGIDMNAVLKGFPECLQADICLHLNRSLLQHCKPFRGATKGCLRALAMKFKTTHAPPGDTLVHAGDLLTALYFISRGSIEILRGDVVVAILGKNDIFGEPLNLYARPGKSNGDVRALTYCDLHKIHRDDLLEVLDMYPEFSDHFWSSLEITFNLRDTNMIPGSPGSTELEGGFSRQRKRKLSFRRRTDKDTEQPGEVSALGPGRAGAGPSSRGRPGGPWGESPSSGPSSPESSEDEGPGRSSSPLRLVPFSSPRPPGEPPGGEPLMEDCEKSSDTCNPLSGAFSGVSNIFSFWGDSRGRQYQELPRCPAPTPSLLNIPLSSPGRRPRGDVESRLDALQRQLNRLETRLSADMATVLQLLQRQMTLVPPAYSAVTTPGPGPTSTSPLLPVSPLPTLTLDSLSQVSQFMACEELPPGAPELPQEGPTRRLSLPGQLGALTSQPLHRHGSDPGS

Point of comparison: Cc1ccc(C)c(S(=O)(=O)Nc2ccc(C(=O)NCCc3ccccn3)cc2)c1, “hERG current change (%, negative = inhibition) at 10uM” value 10.2%. Against it:
- CC1CCN(C(=O)CCNC(=O)Cn2cnc3sc4c(c3c2=O)CCCC4)CC1 — lower, -9.86%
- Cc1nnc(SCC(=O)Nc2cccc(S(=O)(=O)N(C)c3ccccc3)c2)s1 — lower, -32.2%
- CCOC(=O)C1CCCN(C(=O)c2ccc(-c3ccc([N+](=O)[O-])cc3)o2)C1 (stereo not drawn) — lower, -56.1%
- O=C(c1cc(Cl)ccc1Cl)N1CCN(c2ccccn2)CC1 — lower, -13.3%
- CC(/C=N/NC(=O)c1cc(-c2ccc3ccccc3c2)n[nH]1)=C\c1ccco1 — lower, -4.47%
- CCC(c1nnc(SCC(=O)Nc2cccc(S(N)(=O)=O)c2)n1-c1ccc(OC)cc1)N(C)C (stereo not drawn) — higher, 13.3%
- O=c1[nH]c2ccccc2c(=O)n1CCCO — lower, 2.66%
- CC(=O)c1c(C)oc2ccc(N(C(=O)c3ccncc3)S(=O)(=O)c3ccccc3)cc12 — lower, -15%
- CC(C)=N/N=C(\N)SCc1ccccc1 — lower, 5.13%
- CC1=C(C(=O)OCCC#N)C(c2cc3c(cc2Br)OCO3)NC(=O)N1 (stereo not drawn) — higher, 10.6%
- Cc1onc(-c2ccccc2)c1C(=O)NNC(=S)NC(=O)/C=C/c1cccs1 — lower, 5.43%
- Cc1cc(C(F)(F)F)c(C#N)c(Sc2ccccc2)n1 — lower, 9.44%
- CCCCNC(=O)C1(O)c2cc(Br)ccc2NC(=O)N1c1cccc(OC)c1 (stereo not drawn) — lower, 7.42%
- COc1ccc(-c2ccc(SCc3cccnc3)nn2)cc1OC — higher, 29%
- c1ccc(CN2CCOCCOCCOCCOCC2)cc1 — lower, -7.69%
- O=C(CSc1ncccn1)N1CCN(Cc2ccccc2)CC1 — lower, 9.31%
- O=C(COc1ccccc1Br)N1CCNC1=O — lower, -5.29%
- CCSc1ccc(-c2nn(-c3ccccc3)cc2/C=C(/C#N)C(=O)NCCCOC)cc1 — lower, 1.56%
- O=C(CCNC(=O)c1ccc(Br)cc1)Nc1nccs1 — lower, 7.1%
- OCCCNc1ncnc2scc(-c3ccc(Cl)cc3)c12 — lower, -12.2%
- Cc1nc2ccccc2c(=O)n1NC(=O)C1CCCCC1 — lower, 5.49%
- CNC(=O)c1nc[nH]c1C(=O)NC — higher, 12.7%
- CCCN(CCC)CCCNC(=O)CS(=O)Cc1nc(-c2ccc(OC)c(OC)c2)oc1C (stereo not drawn) — lower, -0.855%
- CCOC(=O)c1ccc(NC(=O)CCc2nc(-c3cccc(C)c3)no2)cc1 — lower, 7.13%
- COc1cc(/C=C2/C(=O)N(c3ccc([N+](=O)[O-])cc3)N=C2N2CCOCC2)ccc1O — lower, -42.2%
- CCC1CCCCN1CCCNC(=O)c1ccc2c(c1)NC(=O)CS2 (stereo not drawn) — lower, 4.27%
- CCOc1ccc(N2CC(C(=O)NCc3ccc(F)cc3)CC2=O)cc1 (stereo not drawn) — lower, -27.3%
- C=CCOc1ccc(-c2n[nH]c(=S)o2)cc1 — higher, 19.6%
- CCOC(=O)N1CCN(C(=O)c2ccc3c(c2)sc2nc(-c4ccc(OC)cc4)cn23)CC1 — lower, -20.4%
- COc1ccc(C2CC(=O)C3=C(C2)Nc2ccccc2NC3c2coc3ccccc3c2=O)cc1OC (stereo not drawn) — lower, 7.3%
- CCc1nnc(NC(=O)CN2C(=O)c3ccccc3C2=O)s1 — lower, 5.27%
- O=C(O)C1CCN(C(=O)CSc2nc3ccccc3c(=O)n2Cc2ccccc2)CC1 — lower, 1.51%
- Cn1nc(C(=O)N2CCOCC2)c2ccccc2c1=O — lower, 8.42%
- CN1CCN(C(=O)CN(C)S(=O)(=O)c2cc(Cl)ccc2Cl)CC1 — lower, 4.23%
- CC(=O)NC(c1cc(Cl)c2ccccc2c1O)C(C)C (stereo not drawn) — lower, -7.33%
- CCOCCOc1cccc(C(=O)NC(C)c2ccc3ccccc3c2)c1 (stereo not drawn) — higher, 16.4%
- CCOCCCN=Cc1c(O)n(Cc2ccccc2)c(=O)[nH]c1=O — lower, -4.85%
- S=C(Nc1ccc(Cl)c(Cl)c1)NN1CCOCC1 — lower, 7.13%
- Cc1cc(C)c2c(c1)/C(=N/NC(=O)c1ccc(O)cc1)CCC2 — higher, 13.8%
- CC(C)(CN1CCN(Cc2ccccc2)CC1)NS(=O)(=O)c1ccccc1 — lower, -39.6%
- O=C(CNC(=O)C1COc2ccccc2O1)N/N=C\c1ccccc1Cl (stereo not drawn) — lower, 4.64%
- O=C(CCCOc1ccccc1)N1CCN(S(=O)(=O)c2ccccc2)CC1 — lower, -4.56%
- O=C(CSC(=S)N1CCCC1)NCC(=O)Nc1ccc(F)c(F)c1 — lower, 3.96%
- CC1CN(c2nc3ccccc3nc2C(C#N)C(=O)NC2CCCCC2)CC(C)O1 (stereo not drawn) — lower, 3.43%
